According to patent US4230692A, “Ravidomycin and process of preparation” (Ayerst McKenna & Harrison, Inc., priority 1978, dated 1980):

Test system: gram positive bacteria
Experiment: Test for antibacterial activity (in words)
Assay type: cell-based
Conditions: gram positive bacteria including Staphylococcus pyogenes, Streptococcus faecalis, pathogenic Mycobacterium species

SMILES: C=Cc1cc(OC)c2c(c1)c(=O)oc1c2cc(OC)c2c(O)ccc(C3OC(C)C(OC(C)=O)C(N(C)C)C3O)c21 (stereo not shown) [ravidomycin]
- antibacterial activity against gram positive bacteria: adversely affecting the growth of gram positive bacteria
